Measurements: the supplement of paper PMC4604168 (melanoma cell lines)
Some of the results follow. Repeats are few or missing, and single values can be far off.

Legend:
Assay in all cases: cell count relative to DMSO control; melanoma cells; higher = more viable cells
Conditions in all cases: library dose: standard library concentration; 72 h
SkMel28 = system: SkMel28
SkMel2 = system: SkMel2
SkMel30 = system: SkMel30
SkMel5 = system: SkMel5
UACC257 = system: UACC257
UACC62 = system: UACC62
WM115 = system: WM115
WM1716 = system: WM1716
WM1745 = system: WM1745
WM3526 = system: WM3526
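Also: cells treated in 1,536-well plates, then fixed and DAPI-stained, with nuclei counted from automated high-throughput microscope images.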

| Compound | cell count (SkMel28) | cell count (SkMel2) | cell count (SkMel30) | cell count (SkMel5) | cell count (UACC257) | cell count (UACC62) | cell count (WM115) | cell count (WM1716) | cell count (WM1745) | cell count (WM3526) |
| --- | --- | --- | --- | --- | --- | --- | --- | --- | --- | --- |
| CN1CCN(c2ccc3nc(-c4c(N)c5c(F)cccc5[nH]c4=O)[nH]c3c2)CC1 [Dovitinib] + OCc1c[nH]c2ccccc12 [Indole-3-carbinol] (first compound 0.5 µM, partner dose 4 µM) | 66.4% | 89.4% | 112% | 78.7% | 85% | 95.6% | 67.3% | 85.4% | 61% | 90.4% |
| C[C@@H](Oc1cc(-c2cnn(C3CCNCC3)c2)cnc1N)c1c(Cl)ccc(F)c1Cl [Crizotinib] + CN(NC(=O)CC(=O)NN(C)C(=S)c1ccccc1)C(=S)c1ccccc1 [STA4783] (first compound 1 µM, partner dose 0.03 µM) | 43.8% | 67.2% | 84.5% | 43.9% | 85.8% | 70.7% | 29.8% | 35.8% | 43.9% | 83.8% |
| C[C@@H](Oc1cc(-c2cnn(C3CCNCC3)c2)cnc1N)c1c(Cl)ccc(F)c1Cl [Crizotinib] + COCC[n+]1c2c(n(Cc3cnccn3)c1C)C(=O)c1ccccc1C2=O [YM155] (first compound 1 µM, partner dose 0.002 µM) | 37.2% | 39.9% | 73.1% | 30.6% | 28.7% | 61.1% | 38.8% | 53.9% | 69.6% | 35.7% |
| CS(=O)(=O)CCNCc1ccc(-c2ccc3ncnc(Nc4ccc(OCc5cccc(F)c5)c(Cl)c4)c3c2)o1 [lapatinib] + C#Cc1cccc(Nc2ncnc3cc(OCCOC)c(OCCOC)cc23)c1 [erlotinib] (first compound 4 µM, partner dose 4 µM) | 80.3% | 77.9% | 85.7% | 68.6% | 109% | 58.3% | 74.6% | 104% | 72.5% | 80% |
| CN1CCN(c2ccc3nc(-c4c(N)c5c(F)cccc5[nH]c4=O)[nH]c3c2)CC1 [Dovitinib] + CCCS(=O)(=O)Nc1ccc(F)c(C(=O)c2c[nH]c3ncc(Cl)cc23)c1F [PLX4720] (first compound 0.5 µM, partner dose 0.4 µM) | 37.1% | 72.5% | 83.9% | 46.4% | 83.1% | 54.5% | 69.5% | 56.2% | 55.8% | 39.1% |
| CNC(=O)c1cc(Oc2ccc(NC(=O)Nc3ccc(Cl)c(C(F)(F)F)c3)cc2)ccn1 [sorafenib] + CC1(C)NC(=O)N(c2ccc([N+](=O)[O-])c(C(F)(F)F)c2)C1=O [nilutamide] (first compound 2 µM, partner dose 5 µM) | 113% | 83.8% | 85.5% | 68.6% | 86.5% | 77.7% | 104% | 120% | 107% | 77.2% |
| CNC(=O)c1cc(Oc2ccc(NC(=O)Nc3ccc(Cl)c(C(F)(F)F)c3)cc2)ccn1 [sorafenib] + C#Cc1cccc(Nc2ncnc3cc(OCCOC)c(OCCOC)cc23)c1 [erlotinib] (first compound 2 µM, partner dose 4 µM) | 49.7% | 68.5% | 67.7% | 56.5% | 83.5% | 58.8% | 62.7% | 98.5% | 78.1% | 57.8% |
| CNC(=O)c1cc(Oc2ccc(NC(=O)Nc3ccc(Cl)c(C(F)(F)F)c3)cc2)ccn1 [sorafenib] + Cc1ccc(NC(=O)c2cccc(N(C)C)c2)cc1NC(=O)c1ccc(O)cc1 [ZM336372] (first compound 2 µM, partner dose 10 µM) | 110% | 98.9% | 117% | 92.8% | 80.7% | 78.1% | 88.3% | 120% | 97.6% | 91.6% |
| CN1CCN(c2ccc3nc(-c4c(N)c5c(F)cccc5[nH]c4=O)[nH]c3c2)CC1 [Dovitinib] + Nc1nc(F)nc2c1ncn2[C@@H]1O[C@H](CO)[C@@H](O)[C@@H]1O [fludarabine] (first compound 0.5 µM, partner dose 1 µM) | 3.05% | 2.85% | 19.8% | 25.7% | 36.4% | 58.4% | 67.9% | 71.2% | 65.2% | 26.3% |
| CNC(=O)c1cc(Oc2ccc(NC(=O)Nc3ccc(Cl)c(C(F)(F)F)c3)cc2)ccn1 [sorafenib] + COc1ccc(Cl)c(Nc2nc3ccccc3nc2NS(=O)(=O)c2cccc(NC(=O)C(C)(C)N)c2)c1 [XL147] (first compound 2 µM, partner dose 4 µM) | 75.9% | 89.5% | 99.6% | 79% | 71.8% | 99.5% | 81.6% | 84.6% | 85.7% | 75.7% |
| CNC(=O)c1cc(Oc2ccc(NC(=O)Nc3ccc(Cl)c(C(F)(F)F)c3)cc2)ccn1 [sorafenib] + C[C@]1(c2nc3c(C(N)=O)cccc3[nH]2)CCCN1 [Veliparib] (first compound 2 µM, partner dose 7 µM) | 49.7% | 97.1% | 96.2% | 97.4% | 82.9% | 86.4% | 84.3% | 97.6% | 84.3% | 82.2% |
| CS(=O)(=O)CCNCc1ccc(-c2ccc3ncnc(Nc4ccc(OCc5cccc(F)c5)c(Cl)c4)c3c2)o1 [lapatinib] + Cc1ccc(NC(=O)c2cccc(N(C)C)c2)cc1NC(=O)c1ccc(O)cc1 [ZM336372] (first compound 4 µM, partner dose 10 µM) | 51.7% | 74.3% | 87.1% | 59.6% | 85.5% | 60.5% | 82% | 92% | 54.6% | 71.2% |
| C=CCNC1=C2C[C@@H](C)C[C@H](OC)[C@H](O)[C@@H](C)/C=C(\C)[C@H](OC(N)=O)[C@@H](OC)/C=C\C=C(/C)C(=O)NC(=CC1=O)C2=O [Tanespimycin] + COc1cc2c(Oc3ccc4[nH]c(C)cc4c3F)ncnc2cc1OCCCN1CCCC1 [cediranib] (first compound 0.01 µM, partner dose 2 µM) | 23.9% | 77% | 81.9% | 68.3% | 96.3% | 57.7% | 21.8% | 76.7% | 48.1% | 59.4% |
| CN1CCN(c2ccc3nc(-c4c(N)c5c(F)cccc5[nH]c4=O)[nH]c3c2)CC1 [Dovitinib] + O=C(Nc1cccc(Cl)c1)Nc1ncc(CCNc2ncnc3ccsc23)s1 [SNS314] (first compound 0.5 µM, partner dose 0.004 µM) | 51% | 48.7% | 111% | 61.5% | 84.3% | 85.5% | 60.7% | 64.6% | 55.8% | 69.8% |
| C=CCNC1=C2C[C@@H](C)C[C@H](OC)[C@H](O)[C@@H](C)/C=C(\C)[C@H](OC(N)=O)[C@@H](OC)/C=C\C=C(/C)C(=O)NC(=CC1=O)C2=O [Tanespimycin] + COc1ccc(Cl)c(Nc2nc3ccccc3nc2NS(=O)(=O)c2cccc(NC(=O)C(C)(C)N)c2)c1 [XL147] (first compound 0.01 µM, partner dose 4 µM) | 55.8% | 79.8% | 75.4% | 59.6% | 62.8% | 54.8% | 32.6% | 78.3% | 77.6% | 76.6% |
| CN1CCN(c2ccc3nc(-c4c(N)c5c(F)cccc5[nH]c4=O)[nH]c3c2)CC1 [Dovitinib] + CN(C)S(=O)(=O)c1ccc2c(c1)/C(=C/c1cc3c([nH]1)CCCC3)C(=O)N2 [SU6656] (first compound 0.5 µM, partner dose 2 µM) | 38.1% | 51.2% | 71.5% | 51.3% | 67.2% | 68.8% | 39% | 61.1% | 56.4% | 50.1% |
| C=CCNC1=C2C[C@@H](C)C[C@H](OC)[C@H](O)[C@@H](C)/C=C(\C)[C@H](OC(N)=O)[C@@H](OC)/C=C\C=C(/C)C(=O)NC(=CC1=O)C2=O [Tanespimycin] + Cc1nc(Nc2ncc(C(=O)Nc3c(C)cccc3Cl)s2)cc(N2CCN(CCO)CC2)n1 [dasatanib] (first compound 0.01 µM, partner dose 0.02 µM) | 66.7% | 93.3% | 105% | 69.5% | 98.5% | 55.3% | 26.1% | 99.3% | 11.7% | 72.5% |
| CNC(=O)c1cc(Oc2ccc(NC(=O)Nc3ccc(Cl)c(C(F)(F)F)c3)cc2)ccn1 [sorafenib] + CCCS(=O)(=O)Nc1ccc(F)c(C(=O)c2c[nH]c3ncc(Cl)cc23)c1F [PLX4720] (first compound 2 µM, partner dose 0.4 µM) | 52.9% | 69.6% | 95% | 67.6% | 83.3% | 47.3% | 81.2% | 95.8% | 65.5% | 37.5% |
| C[C@@H](Oc1cc(-c2cnn(C3CCNCC3)c2)cnc1N)c1c(Cl)ccc(F)c1Cl [Crizotinib] + O=C(CCCCCCC(=O)Nc1ccccc1)NO [vorinostat] (first compound 1 µM, partner dose 0.4 µM) | 44.9% | 73.4% | 100% | 67.8% | 72% | 85% | 57.2% | 69% | 58.8% | 67.7% |
| C[C@@H](Oc1cc(-c2cnn(C3CCNCC3)c2)cnc1N)c1c(Cl)ccc(F)c1Cl [Crizotinib] + C=C(c1ccc(C(=O)O)cc1)c1cc2c(cc1C)C(C)(C)CCC2(C)C [Bexarotene] (first compound 1 µM, partner dose 10 µM) | 70.6% | 69.7% | 83.2% | 67.8% | 85.7% | 64.6% | 69.6% | 76.8% | 65.9% | 72.7% |
| CS(=O)(=O)CCNCc1ccc(-c2ccc3ncnc(Nc4ccc(OCc5cccc(F)c5)c(Cl)c4)c3c2)o1 [lapatinib] + O=C(O)c1ccc2c(c1)nc(Nc1cccc(Cl)c1)c1ccncc12 [CX4945] (first compound 4 µM, partner dose 2 µM) | 60.4% | 74.4% | 50.9% | 55.8% | 81.5% | 47.5% | 71% | 81.9% | 50.2% | 46.3% |
